58 compounds from the supplement of paper PMC9446081 can be followed below.

The campaign covered roughly 39,000 compounds. About 220 (0.56%) showed activity. The list shows a part of the results.
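Further: static incubation at 37 °C against the wild-type strain, values averaged over two biological replicates.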

In the assay the test system is Escherichia coli K-12 BW25113. Briefly: relative growth (OD600 normalised to plate interquartile mean) (fraction); higher = less growth inhibition, active = 0.2 or less. The settings on record: 50 µM; LB; incubation time: overnight (16-24 h).
Take `CCCN1C[C@@H](C)[C@@H](OC)CN(C)C(=O)c2ccc(NS(=O)(=O)c3cn(C)cn3)cc2OC[C@H]1C`: the relative growth was inactive: 1.01.
With `C[C@H]1CN([C@@H](C)CO)C(=O)c2cccc(NC(=O)Nc3ccc(F)cc3)c2O[C@@H]1CN(C)Cc1ccc(-c2ccccc2)cc1` the figure was inactive: 0.969; with `C[C@H](CO)N1C[C@H](C)[C@H](CN(C)CC2CCCCC2)Oc2ccc(NS(=O)(=O)c3cn(C)cn3)cc2C1=O`, inactive: 1.01; with `COc1ccc(S(=O)(=O)Nc2ccc3c(c2)C(=O)N([C@H](C)CO)C[C@H](C)[C@H](CN(C)C(=O)Nc2c(C)noc2C)OCCCC[C@H](C)O3)cc1`, inactive: 1.01.
For the compound `C[C@H](CO)N1C[C@H](C)[C@@H](CN(C)C(=O)CN(C)C)Oc2cc(C#Cc3ccccc3)ccc2S1(=O)=O`, the relative growth was inactive: 0.985.
The value for `COc1ccc2c3c([nH]c2c1)[C@H](CO)N(Cc1ccncc1)C[C@]13CCN(CC1)Cc1ccc(cc1)-c1ccccn1` was inactive: 0.987; that for `CN(C)C(=O)C[C@@H]1CC[C@H](NC(=O)C2CC2)[C@@H](CO)O1` was inactive: 1.02; that for `NC(=O)c1ccc[n+]([C@@H]2O[C@H](COP(=O)(O)OP(=O)(O)OC[C@H]3O[C@@H](n4cnc5c(N)ncnc54)[C@H](O)[C@@H]3O)[C@@H](O)[C@H]2O)c1` was inactive: 1.02.
The value for `Cc1nn(CC(=O)NC(C)C)c(C)c1[N+](=O)[O-]` was inactive: 0.993.
`C[C@@H]1CN([C@H](C)CO)C(=O)c2cccc(N(C)C)c2O[C@@H]1CN(C)S(C)(=O)=O`: the relative growth is inactive: 0.987.
As to `Cc1noc(C)c1NC(=O)Nc1cccc2c1O[C@@H](CN(C)S(=O)(=O)c1cn(C)cn1)[C@H](C)CN([C@H](C)CO)C2=O`, the relative growth was inactive: 0.932.
Consider `CC(=O)N1CCc2c(sc(NC(=O)CN3C(=O)CCC3=O)c2C(N)=O)C1`, for which the relative growth is inactive: 0.98.
For `CO[C@H]1CN(C)C(=O)c2cc(NS(C)(=O)=O)ccc2OC[C@H](C)N(C(=O)C2CCCCC2)C[C@H]1C`, the relative growth is inactive: 0.958.
With `CNC[C@H]1OCCCC[C@H](C)Oc2ccc(NS(=O)(=O)c3cn(C)cn3)cc2C(=O)N([C@@H](C)CO)C[C@H]1C` the figure was inactive: 0.989; with `COc1ccc(S(=O)(=O)Nc2ccc3c(c2)C(=O)N([C@@H](C)CO)C[C@@H](C)[C@@H](CN(C)C(=O)Nc2ccc(C(F)(F)F)cc2)OCCCC[C@H](C)O3)cc1`, inactive: 1.03; with `CN1CCN2c3ncccc3Cc3ccccc3C2C1` (stereo not drawn), inactive: 0.988.
With `CO[C@@H]1CN(C)C(=O)c2ccc(NS(C)(=O)=O)cc2OC[C@@H](C)N(C(=O)C2CCCCC2)C[C@H]1C` the figure was inactive: 0.98; with `Cc1noc(C)c1NC(=O)Nc1cccc2c1O[C@H](CN(C)Cc1ccc(Cl)c(Cl)c1)[C@H](C)CN([C@@H](C)CO)C2=O`, inactive: 0.978; with `C[C@H]1CCCCO[C@@H](CN(C)Cc2ccc(C(F)(F)F)cc2)[C@@H](C)CN([C@@H](C)CO)C(=O)c2cc(NC(=O)Nc3ccccc3)ccc2O1`, inactive: 1.02.
The value for `Cc1noc(C)c1NC(=O)N(C)C[C@H]1Oc2c(NC(=O)NC(C)C)cccc2C(=O)N([C@H](C)CO)C[C@H]1C` was inactive: 0.99.
Turning to `C[C@@H]1CCCCO[C@H](CN(C)C(=O)Nc2ccccc2)[C@H](C)CN([C@@H](C)CO)C(=O)c2cc(NC(=O)Nc3ccccc3)ccc2O1`, the relative growth is inactive: 1.03.
For `O=C(O)C1C(=CCO)OC2CC(=O)N21.[LiH]` (stereo not drawn), the relative growth is inactive: 0.912.
The value for `Cc1ccc(S(=O)(=O)Nc2cccc3c2O[C@@H](CN(C)Cc2ccc(-c4ccccc4)cc2)[C@H](C)CN([C@H](C)CO)C3=O)cc1` was inactive: 1.04.
The value for `O=C(C[C@H]1C=C[C@@H](NC(=O)Cc2ccccn2)[C@H](CO)O1)NCCc1ccncc1` was inactive: 0.895.
In the case of `C[C@@H]1CN([C@@H](C)CO)C(=O)c2cc(NC(=O)CCC(F)(F)F)ccc2O[C@@H](C)CCCCO[C@@H]1CN(C)Cc1ccc2c(c1)OCO2`, the relative growth is inactive: 1.01.
With `Cn1c(O)cc(=O)n(C)c1=O` the figure was inactive: 1; with `C[C@@H]1CCCCO[C@H](CN(C)C(=O)Nc2ccc(F)cc2)[C@@H](C)CN([C@H](C)CO)C(=O)c2cc(NS(=O)(=O)c3ccc(Cl)cc3)ccc2O1`, inactive: 0.933.
With `C[C@@H]1CCCCO[C@@H](CN(C)CC2CCCCC2)[C@H](C)CN([C@H](C)CO)C(=O)c2cc(NC(=O)C3CCCCC3)ccc2O1`, the relative growth was inactive: 1.01.
Regarding `C[C@H](CO)N1C[C@H](C)[C@H](CN(C)Cc2ccc(C(F)(F)F)cc2)Oc2ccc(NS(=O)(=O)c3ccc(Cl)cc3)cc2C1=O`, the relative growth is inactive: 1.01.
For `COc1ccccc1CNC(=O)C[C@H]1C[C@H]2c3cc(NC(=O)Nc4ccc(C(F)(F)F)cc4)ccc3O[C@H]2[C@@H](CO)O1`, the relative growth is inactive: 1.01.
As to `CC1(C)CC[C@]2(C(=O)O[C@H]3O[C@@H](CO)[C@@H](O)[C@@H](O)[C@@H]3O)CC[C@]3(C)C(=CC[C@H]4[C@@]5(C)C[C@@H](O)[C@H](O[C@H]6O[C@H](C(=O)O)[C@@H](O)[C@@H](O)[C@@H]6O)C(C)(C)[C@@H]5CC[C@]43C)[C@@H]2C1`, the relative growth was inactive: 0.992.
With `C[C@@H]1CN([C@@H](C)CO)C(=O)c2c(c3ccccc3n2C)-c2ccccc2CO[C@@H]1CN(C)S(=O)(=O)c1ccc(C(F)(F)F)cc1` the figure was inactive: 1.02; with `C[C@@H]1CN([C@@H](C)CO)C(=O)c2cc(-c3ccncc3)cnc2O[C@H]1CN(C)S(=O)(=O)c1ccccc1`, inactive: 0.979.
With `C[C@@H]1CN([C@H](C)CO)C(=O)c2cc(-c3cccc(C(=O)N(C)C)c3)cnc2O[C@@H]1CN(C)C(=O)Cc1ccccn1`, the relative growth is inactive: 0.998.
Consider `C[C@H](CO)N1C[C@H](C)[C@@H](CN(C)C(=O)NC2CCCCC2)OCCCC[C@H](C)Oc2ccc(NC(=O)Nc3ccc(C(F)(F)F)cc3)cc2C1=O`, for which the relative growth was inactive: 0.988.
`O=C(Nc1ccc(-c2ccccc2)cc1)[C@H]1C[C@@H]1c1ccccc1`: the relative growth is inactive: 1.06.
The value for `C[C@H](CO)N1C[C@H](C)[C@H](CN(C)Cc2ccc3c(c2)OCO3)OCCCC[C@H](C)Oc2ccc(NS(=O)(=O)c3ccc(Cl)cc3)cc2C1=O` was inactive: 1.01.
With `COc1ccc(NC(=O)N(C)C[C@H]2OCCCC[C@H](C)Oc3ccc(NC(=O)Cc4ccccc4)cc3C(=O)N([C@H](C)CO)C[C@H]2C)cc1` the figure was inactive: 1.02; with `CO[C@@H]1CN(C)C(=O)c2cc(NS(=O)(=O)CC(F)(F)F)ccc2OC[C@H](C)N(Cc2nccs2)C[C@@H]1C`, inactive: 0.999.
Turning to `C[C@H](CO)N1C[C@H](C)[C@H](CN(C)C(=O)Nc2ccc(F)cc2)Oc2c(NC(=O)c3cnccn3)cccc2C1=O`, the relative growth was inactive: 1.
With `OC[C@H]1O[C@H](n2cnc3cncnc32)[C@@H](O)[C@@H]1O` the figure was inactive: 0.973; with `C[C@H]1CN([C@@H](C)CO)C(=O)Cc2cc(NC(=O)Cn3cnnn3)ccc2O[C@H]1CN(C)S(=O)(=O)c1ccccc1`, inactive: 0.994; with `O=C1CC[C@H](C(=O)O)N1`, inactive: 1.01.
The value for `C[C@@H]1CN([C@H](C)CO)C(=O)c2cc(NS(=O)(=O)c3cn(C)cn3)ccc2O[C@H]1CN(C)CC1CCCCC1` was inactive: 0.988.
Turning to `C[C@@H]1CN([C@@H](C)CO)C(=O)Cc2cc(NC(=O)Nc3ccc(C(F)(F)F)cc3)ccc2O[C@@H]1CN(C)Cc1ccc(Oc2ccccc2)cc1`, the relative growth is inactive: 1.02.
As to `Cc1noc(C)c1NC(=O)N(C)C[C@H]1OCCCC[C@@H](C)Oc2ccc(NC(=O)Cc3ccccc3)cc2C(=O)N([C@@H](C)CO)C[C@@H]1C`, the relative growth is inactive: 1.01.
With `C[C@@H]1CCCCO[C@H](CN(C)C(=O)Nc2ccc(F)cc2)[C@@H](C)CN([C@H](C)CO)C(=O)c2cc(NC(=O)Nc3cccc4ccccc34)ccc2O1` the figure was inactive: 1.04; with `Cc1ccccc1S(=O)(=O)N1C[C@@H](O)COC[C@H]2O[C@H](CC(=O)NCCc3ccncc3)CC[C@@H]21`, inactive: 0.983; with `O=C(C[C@@H]1C[C@@H]2c3cc(NS(=O)(=O)c4ccc(F)cc4)ccc3O[C@@H]2[C@H](CO)O1)NCCc1ccccc1`, inactive: 1.04.
In the case of `CN1CCN(C(=O)C[C@@H]2CC[C@H]3[C@@H](COC[C@@H](O)CN3S(=O)(=O)c3cccc(Cl)c3)O2)CC1`, the relative growth was inactive: 1.03.
With `COc1cccc(-c2cnc3c(c2)C(=O)N([C@H](C)CO)C[C@H](C)[C@H](CN(C)S(=O)(=O)c2ccc(F)cc2)O3)c1` the figure was inactive: 1; with `C[C@@H]1CCCCO[C@@H](CN(C)Cc2ccc(C(F)(F)F)cc2)[C@@H](C)CN([C@@H](C)CO)C(=O)c2cc(NS(=O)(=O)c3ccccc3)ccc2O1`, inactive: 1.04; with `COc1cccc(S(=O)(=O)N2C[C@H](O)COC[C@@H]3O[C@H](CC(=O)N4CCN(c5ccccc5)CC4)CC[C@H]32)c1`, inactive: 1.02.
The value for `NCCCCCNC(=O)[C@@H]1C[C@@H]2C(=O)NCC(=O)N2[C@@H]1c1cccc(OCCO)c1` was inactive: 1.01.
With `Cc1cc(C(=O)Nc2ccc3c(c2)C(=O)N(C)[C@H]2CC[C@H](CC(=O)NCC(F)(F)F)O[C@@H]2CO3)no1` the figure was inactive: 1; with `C[C@H](CO)N1C[C@H](C)[C@@H](CN(C)C(=O)Nc2ccc3c(c2)OCO3)Oc2ccc(NC(=O)c3ccncc3)cc2CC1=O`, inactive: 0.963; with `Cc1ccc(S(=O)(=O)Nc2cccc3c2O[C@H](CN(C)S(=O)(=O)c2ccc(F)cc2)[C@H](C)CN([C@H](C)CO)C3=O)cc1`, inactive: 0.986.
Regarding `C[C@H](CO)N1C[C@H](C)[C@H](CN(C)C(=O)CN2CCOCC2)Oc2ncc(-c3cncnc3)cc2C1=O`, the relative growth is inactive: 0.983.
